# Assay results as given in the supplement of paper PMC11417369.
# Some of the results follow.
# Test system: PfSIP2 AP2 domain 1 (GST-tagged)
# Assay: gcPBM binding intensity (ln(normalized median fluorescence intensity)); higher = stronger DNA binding
# Summary of the method: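 An Agilent 4 × 180k array carrying primer-extended double-stranded 36-bp intergenic genomic probes and negative controls received GST-tagged P. falciparum DNA-binding domains expressed in E. coli, about 25 μg on average, for 1 h. The binding buffer contained 1× PBS, 1% milk, 0.2 mg/ml BSA, 0.5% salmon testes DNA and 0.03% Triton X-100. Binding intensity is the top Masliner-normalised natural-log median intensity across replicate spots of either probe orientation, read after Alexa488 anti-GST antibody staining and a 488 nm scan.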
row,Sequence,gcPBM binding intensity (ln)
1,ATGGGAATATAATTATGTACATATAAAAATTATAAA [XGTACX_site5336],6.97
2,TAATTATGCAGACACACACACACACGCAACTAAAAA [CACACA_site7253],7.37
3,TCATTTCACGGACACACACACACAATATATTTCCTT [CACACA_site6023],7.37
4,AAAAAATATTTTTACAGTACATATATATAAAATGTT [XGTACX_site3215],6.96
5,TAACAAAGGAAAGATATACACACGTATGCATGATAA [CACACA_site2520],6.9
6,TAAATAAGGAAGGAAACACACATTAAAAAATAAATA [CACACA_site618],6.74
7,TTTTTAAATTATTTGAAAAAAAGAAAATTATAAACA [CACACA_negctrl_site1599],7.12
8,AACAGAAGCACATACACACACTCAAAAAAAAAAAAA [CACACA_site5652],7.19
9,ATTTTATTCTAAAAAGGTACACATATTATTTTATGA [XGTACX_site7233],7.01
10,ATTAATATATATGGATGTACTTATGTATGTATGCAT [XGTACX_site2263],7.24
11,ATAATAATATATATTACACACGCATCGTTCATTTAT [CACACA_site8752],7.06
12,GGAAAAACCATTCGCACACACACATAATATATAATA [CACACA_site1424],7.31
13,CATGTATAATATAATACACACTATATAATATACACC [CACACA_site5267],7.11
14,TCTTACTAATATCGCACACACATATGTAGACGGGAT [CACACA_site87],7.1
15,TATTTATATGGACACACACACATATAAATAAATAAA [CACACA_site6346],7.03
16,ATGGCCATAATATAGACACACATATATAAATATATA [CACACA_site2230],6.91
17,CGATATGTTCAATATTGTACTATTTATAATAATATG [XGTACX_site3051],6.9
18,TATTGACAAAATAGCTGTACAAATTAAAAGAAATAA [XGTACX_site4415],6.97
19,CTTAAAAAAAAAAAATGTACACATAAAAAAAATACA [XGTACX_site6700],7.05
20,TTTAATTGATAATGAAGACAATTATATGCATCCAAA [TGCATGCA_negctrl_site138],6.79
21,TTATTGTCTTCTCATATACACACTTTTATGACTATC [CACACA_site3142],7.35
22,AAACATATATATATTATATATATATATATATATATG [GTGCAC_negctrl_site182],7.73

row,Sequence,gcPBM binding intensity (ln)
1,TAACATATAATATTCACACACATATATATATTATAT [CACACA_site988],7.11
2,AAATTAAAAAGACATTCACACATTTTCATCTTAACA [CACACA_site5221],6.75
3,TAAAATATTATAAAATGTACAAAACATATAAATATA [XGTACX_site5315],6.8
4,TGTAGGTATTATTATACACACATAAAAAAAAAAAAA [CACACA_site3598],7.05
5,TATTATTATCTTACCACACACAATGTACGAAAAGAT [CACACA_site352],7.16
6,TATATTTTCTATAGGTGTACTCCACATGCGGTGTTA [XGTACX_site7471],7.06
7,ATATTGATACATCCAATACACACTACATATAATGAT [CACACA_site1874],6.99
8,ATATATGATGTAAAAGCACACATATATATATATATA [CACACA_site9330],9.63
9,TCCCTCTTTTTATTCTCACACACGTTTATATATAAA [CACACA_site1644],7.93
10,AATATATATAAATATTGTACAAAAATATATATATAT [XGTACX_site2910],8.99
11,AAACATCTTTACAACGTCCCTCCTTTTTTATGTACC [GTGCAC_negctrl_site528],6.76
12,TATATAAACATATAAACATGCAATATATATATGTTA [TGCATGCA_site765],6.97
13,AAAAATATATAACAAAGTACATATATATTTAGTAAT [XGTACX_site8791],6.71
14,GGAAAAAAACTTATGAGTACACATAAATATAGCACA [XGTACX_site6686],7.66
15,AAAAAAATTAAATCAAGTACTCATTCTTAAATTATA [XGTACX_site1274],6.89
16,AATATAATATAATGCACACATAAAAAAAAAATCAAA [CACACA_site122],7.39
17,TTTTTATATAACCTTCTTAATTCTTTTTTTTTTTTT [XGTACX_negctrl_site591],6.76
18,AAAACAAAATTATGAACATGCAAGGTAAAATTGTAA [TGCATGCA_site775],7.29
19,GTACAAATGTTGTGTATATATACACACATACATATA [XGTACX_negctrl_site276],7.23
20,AACTTACTTGGACATACACACATATAGATTTATATA [CACACA_site7412],7.32
21,ATGTAGTTTTATCAGTGTACAAGTATTTTATCACAT [XGTACX_site8958],7.01
